# Hit rate of the full screen: of about 200,000 compounds, about 4,500 (2.2%) were called active. Inconclusive results, whose numbers are uncertain, are shown with a selection of clear calls. Calls come from the whole dose curve; as a rule, active = well fitted inhibition curve with a large enough effect; inconclusive = small, poorly fitted or top-dose-only effect, or effect the other way; inactive = flat fitted curve, though single readings scatter. Where the call is inconclusive, the potency comes from a doubtful curve fit.
# Biological target: Cruzipain (Trypanosoma cruzi) (UniProt P25779)
# Sequence of UniProt P25779 (P25779 whole entry, looked up): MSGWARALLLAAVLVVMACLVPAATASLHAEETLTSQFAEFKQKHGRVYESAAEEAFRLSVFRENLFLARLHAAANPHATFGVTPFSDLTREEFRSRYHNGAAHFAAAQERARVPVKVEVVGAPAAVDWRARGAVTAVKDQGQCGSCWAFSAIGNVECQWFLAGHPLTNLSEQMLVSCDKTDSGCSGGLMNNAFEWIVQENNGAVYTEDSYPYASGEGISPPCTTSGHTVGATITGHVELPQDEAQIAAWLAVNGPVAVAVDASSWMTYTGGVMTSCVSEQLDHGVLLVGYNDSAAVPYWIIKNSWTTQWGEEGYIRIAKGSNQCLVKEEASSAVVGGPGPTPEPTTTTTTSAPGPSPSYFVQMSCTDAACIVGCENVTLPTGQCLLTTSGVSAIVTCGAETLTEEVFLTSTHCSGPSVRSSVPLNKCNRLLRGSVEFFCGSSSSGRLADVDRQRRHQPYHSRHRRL
# Experiment: qHTS Assay for Promiscuous and Specific Inhibitors of Cruzain (without detergent); note: nearly all actives have a fitted effect of over 40% in size;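 for max response, negative = inhibition: plate controls were enzyme without inhibitor for no effect and buffer without enzyme for full effect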
# Conditions: purified cruzain, Z-FR-AMC fluorescence, no detergent
# Summary of the method: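 Purified cruzain at 1.5 nM, pre-incubated 15 min with compound at room temperature in 100 mM sodium acetate pH 5.5, 5 mM DTT, 0.00005% Triton X-100. Reaction started with 2 uM Z-FR-AMC; AMC fluorescence increase over 60 s gives rate.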
# Potency is the fitted concentration of half-maximal effect; tags give direction and shape of the fitted curve.
Structure (SMILES),"max response, negative = inhibition",Potency
CN1/C(=C\C(=O)c2cccs2)C(C)(C)c2ccccc21,inactive: 9.69%,
COc1ccc2nc(/N=C(\N)NC(=O)Nc3ccccc3)nc(C)c2c1,,"inconclusive: 39.8 µM [activator, single point]"
COc1ccc(C2CC(=O)c3cc(-c4nc(-c5cccc([N+](=O)[O-])c5)cs4)c(=O)n(-c4ccccc4N)c3C2)cc1 (stereo not given),,"inconclusive: 1.26 µM [inhibitor, full curve, poor fit]"
Cc1ccc(CNC(=O)c2ccc3c(c2)CCN3S(=O)(=O)c2ccc(Br)cc2)cc1,,"inconclusive: 39.8 µM [inhibitor, single point]"
Cc1nc2ccn(Cc3ccco3)c(=O)c2cc1C(=O)NCc1ccc(Cl)cc1,,"inconclusive: 31.6 µM [activator, single point]"
Oc1ccc(Cl)cc1-c1cc(-c2cccc(Br)c2)n[nH]1,,active: 12.6 µM
COc1cccc(/C=c2\s/c(=C/C(=O)c3ccc(C)cc3)[nH]c2=O)c1OC,inactive: -20.2%,
CCOC(=O)N1CCN(C(=O)c2cn(CCOC)c(=O)c3c2c2ccccc2n3C)CC1,,"inconclusive: 39.8 µM [activator, single point]"
COc1ccc(NC(=S)N/N=C2/CCCc3c(C)cc(C)cc32)cc1,,"inconclusive: 39.8 µM [inhibitor, single point]"
CCOC(=O)c1c(S(=O)(=O)N2CCC(C(=O)NCc3cccc(OC)c3)CC2)c(C)n(C)c1C,,"inconclusive: 25.1 µM [activator, single point]"
Cc1ccc(CN2CCc3c(OCC(=O)Nc4cc(C)ccc4C)cccc3C2=O)cc1,,"inconclusive: 31.6 µM [inhibitor, single point]"
CCC(C)(C)n1nnnc1C(c1cc2cc(OC)c(OC)cc2[nH]c1=O)N1CCc2ccccc21 (stereo not given),,"inconclusive: 31.6 µM [activator, partial curve]"
CCc1ccc(-c2cc(C(=O)NN3CCOCC3)c3ccccc3n2)cc1,,"inconclusive: 39.8 µM [activator, single point]"
COc1ccc(NC(=O)COc2ccc(/C=N/NC(=O)c3cccnc3)cc2OC)cc1,,"inconclusive: 39.8 µM [activator, single point]"
Cc1ccc(-c2csc(-c3c(N)c(C(=O)c4ccc5c(c4)OCO5)n4ccccc34)n2)cc1,,"inconclusive: 3.16 µM [inhibitor, full curve]"
CC1=C(C(=O)OC2CCCC2)C(c2c(F)cccc2Cl)CC(=O)N1 (stereo not given),inactive: -7.18%,
Cc1cc2oc(C(=O)N(Cc3ccco3)C3CCS(=O)(=O)C3)cc(=O)c2cc1Cl (stereo not given),,"inconclusive: 39.8 µM [activator, single point]"
COc1ccc2cc3cc(C(=O)Nc4ccc5c(c4)OCCO5)oc3nc2c1,,"inconclusive: 39.8 µM [activator, single point]"
C=CCOCC1CO1 (stereo not given),inactive: -2.06%,
Cc1ccc(C)n1-c1ccc(C(=O)N2CCOCC2)cc1,,"inconclusive: 39.8 µM [activator, single point]"
CCCn1c(-c2cc(OC)c(OC)c(OC)c2)nc2nc3ccccc3nc21,,"inconclusive: 39.8 µM [activator, single point]"
CCOc1ccc(NS(=O)(=O)c2ccc3c(c2)NC(=O)CCS3)cc1,inactive: -2.74%,

Structure (SMILES),"max response, negative = inhibition",Potency
Cc1cc(C)c(OCC(=O)N(Cc2ccc(N(C)C)cc2)Cc2ccco2)c(C)c1,,"inconclusive: 39.8 µM [inhibitor, single point]"
Cc1cc(C)cc(NC(=O)COc2cccc3c(=O)n(C)ccc23)c1,inactive: 18.3%,
CC(C)(C)c1ccc(CN2N=Nc3ccccc3S2(=O)=O)cc1,,"inconclusive: 39.8 µM [inhibitor, single point]"
CCCCN(C)C(=O)c1ccc2c(=O)n3nc(Nc4cc(C)ccc4C)sc3nc2c1,,"inconclusive: 39.8 µM [activator, single point]"
Cc1ccccc1Cn1c(CN2CCC(C(=O)NCc3ccc(Cl)cc3)CC2)cc2ccccc21,,"inconclusive: 39.8 µM [inhibitor, single point]"
CC(C)CC(C(=O)OCC(=O)Nc1ncc(Cl)cc1Cl)N1C(=O)c2ccccc2C1=O (stereo not given),,"inconclusive: 25.1 µM [inhibitor, single point]"
CCN1CCc2c(sc(NC(=O)c3ccc(S(=O)(=O)N4CCCC(C)C4)cc3)c2C(=O)OC)C1 (stereo not given),inactive: -9.21%,
Cc1ccc(S(=O)(=O)ON2C(=O)c3ccccc3C2=O)c(C)c1,,active: 15.8 µM
O=C(CNC(=O)c1ccc(F)cc1)OCc1cc(=O)n2ccsc2n1,inactive: -0.186%,
NC(CO)(CO)CO,inactive: -7.89%,
O=C(CCCN1C(=O)/C(=C/c2cccc(Br)c2)SC1=S)Nc1ccccn1,,active: 25.1 µM
CCc1cc2c(=O)nc3n(c2s1)Cc1ccccc1/C3=C(/O)c1cccc([N+](=O)[O-])c1,,"inconclusive: 39.8 µM [inhibitor, single point]"
Cc1csc(NC(=O)Nc2ccc(Cl)cc2)n1,,"inconclusive: 31.6 µM [inhibitor, single point]"
Cc1c(C(=O)OC(C)C)sc(NC(=O)C2CCCO2)c1C(=O)OC(C)C (stereo not given),,"inconclusive: 31.6 µM [activator, single point]"
Cc1cccc(NC(=O)c2oc3ccccc3c2NC(=O)c2cc(=O)c3ccccc3o2)c1,inactive: 5.55%,
O=[N+]([O-])c1ccc2nc(NCCCO)nc(-c3ccccc3)c2c1,,"inconclusive: 31.6 µM [activator, single point]"
COc1c(/C=N/NC(N)=S)c(C)nn1-c1ccccc1,,"inconclusive: 1.26 µM [inhibitor, full curve, poor fit]"
CCN(CC)S(=O)(=O)c1ccc(N=Nc2c(C)[nH]n(C(N)=S)c2=O)cc1,inactive: -18.8%,
CCOc1ccc(NC(=O)CN(Cc2ccccc2)S(=O)(=O)c2ccc3nc(C)sc3c2)cc1,inactive: 17.9%,
CCOC(=O)N1CCN(Cc2nc3c(c(=O)n(C)c(=O)n3C)n2Cc2ccccc2)CC1,,"inconclusive: 39.8 µM [activator, single point]"
COc1ccc(-c2cc(C(F)(F)F)nc(N3CCCCC3)n2)cc1OC,,"inconclusive: 39.8 µM [activator, single point]"
CCC(C)n1cnc2c(c1=O)c1nc3ccccc3nc1n2Cc1ccccc1OC (stereo not given),,"inconclusive: 31.6 µM [activator, single point]"

Structure (SMILES),"max response, negative = inhibition",Potency
Cc1cccc(N2CCN(C(=O)C3CCN(C(=O)c4cc5sccc5n4C)CC3)CC2C)c1 (stereo not given),,"inconclusive: 20 µM [activator, partial curve]"
COc1ccc(CN(C)c2ccc(-c3nc(-c4ccc(OC)c(OC)c4)no3)cc2[N+](=O)[O-])cc1,,"inconclusive: 31.6 µM [inhibitor, single point]"
CCOc1ccc2nc(Cl)c(C3CC(c4ccc(C)cc4)=NN3C(=O)CCC(=O)O)cc2c1 (stereo not given),,"inconclusive: 3.98 µM [activator, single point]"
COc1cc(SC#N)ccc1N=Cc1c(C)[nH]n(-c2ccc(C)c(C)c2)c1=O,inactive: -4.63%,
COc1cc2c(cc1OC)C(c1cc3ccccc3oc1=O)=NC(C)(C)C2,,"inconclusive: 25.1 µM [inhibitor, single point]"
Cc1ccc(Cn2c(CN3CCN(C(=O)c4ccco4)CC3)nc3c2c(=O)n(C)c(=O)n3C)cc1,,"inconclusive: 31.6 µM [activator, single point]"
COc1cc(S(=O)(=O)NCCc2c(C)[nH]c3ccc(C)cc23)ccc1Br,inactive: -15.7%,
O=C(NCCc1cccs1)C12CN(Cc3ccccc3)CC1C(c1cccc([N+](=O)[O-])c1)=NO2 (stereo not given),,active: 12.6 µM
CCOc1ccc(CCNC(=O)c2cnc3c(-c4ccc(F)cc4)c(C)nn3c2C)cc1,inactive: -1.44%,
COC(=O)[C@@]1(Cc2ccc(F)cc2)[C@H]2c3cc(C(=O)N(C)C)n(C[C@H](O)CO)c3C[C@H]2CN1C(=O)c1ccccc1,,"inconclusive: 15.8 µM [activator, partial curve]"
CCOc1ccccc1-n1nnnc1SCC(=O)Nc1cc2oc3ccccc3c2cc1OC,,active: 7.94 µM
COc1ccc(-c2nn(-c3ccccc3)cc2/C=N/n2cnnc2)cc1OC,,"inconclusive: 39.8 µM [activator, single point]"
C/C(=N\Nc1ccc([N+](=O)[O-])cc1)c1ccc(-n2nncc2C)cc1,,"inconclusive: 31.6 µM [inhibitor, single point]"
N#Cc1ccc(-n2c(-c3ccccc3)nnc2-c2ccccc2)cc1C#N,,active: 20 µM
Cc1nc2ccccc2c2oc(C(=O)Nc3ccc4c(c3)OCCO4)cc12,,"inconclusive: 39.8 µM [activator, single point]"
Nc1nc(CSC(=S)N2CCN(c3ccccc3)CC2)nc(Nc2ccc(F)cc2)n1,,"inconclusive: 39.8 µM [inhibitor, single point]"
COc1ccc(OC)c(S(=O)(=O)Nc2ccc(O)c3ccccc23)c1,,"inconclusive: 39.8 µM [inhibitor, single point]"
COc1cccc(-n2c(SCc3cccc(C)c3)nc3c([nH]c4ccccc43)c2=O)c1,,active: 15.8 µM
Cn1cccc1C(=O)N1CCC2(CCCN(c3ccncc3)C2)CC1,inactive: -7.28%,
Cc1ccc(S(=O)(=O)Oc2ccccc2/C=N/NC(=O)c2nn(C)cc2[N+](=O)[O-])cc1,inactive: 5.48%,
O=C(Cc1csc(Nc2nc(=S)[nH]c3ccccc23)n1)NCc1ccccc1Cl,,"inconclusive: 5.01 µM [inhibitor, single point]"

# Source: PubChem BioAssay AID1476 (National Center for Advancing Translational Sciences (NCATS), 2009)
